Results from PubChem BioAssay AID1240 (Sanford-Burnham Center for Chemical Genomics, 2008).
The campaign covered roughly 50,000 compounds. About 800 (1.6%) showed an effect of 50% or more. This is one part of the list.

molecular target: Bcl-2-like protein 10 (Homo sapiens) (UniProt Q9HD36); test: TR3 peptide-Bcl-B binding displacers, biochemical primary FP assay, phenotype converters (AID 1240); settings: GST-Bcl-B / FITC-TR3 peptide fluorescence polarization; stronger effect = higher value; compound at 3.75 mg/L;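 further: 0% = Bcl-B with tracer peptide and DMSO and 100% = tracer peptide lacking Bcl-B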
Chain of UniProt Q9HD36 (Q9HD36 whole entry, looked up): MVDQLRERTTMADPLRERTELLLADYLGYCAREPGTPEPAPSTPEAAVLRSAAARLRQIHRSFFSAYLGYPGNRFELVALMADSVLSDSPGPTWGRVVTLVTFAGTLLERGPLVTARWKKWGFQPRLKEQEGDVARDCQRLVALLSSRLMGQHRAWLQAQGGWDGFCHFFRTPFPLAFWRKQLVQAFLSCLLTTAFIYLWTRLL

Compound	displacement
COc1ccc(NCC(O)Cn2c3ccc(Br)cc3c3cc(Br)ccc32)c(OC)c1 (configuration not stated)	5.9%
NC(=O)c1c(NC(=O)CCC2CCCCC2)sc2c1CCCCC2	20.7%
CCOc1cc(C(=O)Nc2cccc(NC(=O)c3ccco3)c2)cc(OCC)c1OCC	-9.4%
O=C(/C=C/c1ccccc1)N1CCC(Cc2ccccc2)CC1	-12.8%
O=C(c1cccc(S(=O)(=O)N2CCCCC2)c1)N1CCCc2ccccc21	5.7%
O=C(O)c1ccc(N2C(=O)C=CC2=O)cc1Cl	-2%
O=C(COc1ccc2ccccc2c1)NCCCc1ccccc1	37.2%
O=C(/C=C/c1ccc2c(c1)OCO2)NCCSCc1cccc(Cl)c1	27.3%
CC(=O)c1cc2ccc([N+](=O)[O-])cc2oc1=O	9.6%
CCOc1cccc(/C=N/NC(=O)CSc2nc3ccccc3n2CC)c1O	-8.8%
CCN(CC)S(=O)C12CC3CC(CC(C3)C1)C2 (configuration not stated)	-6%
O=C(CSc1nnc(-c2ccco2)n1-c1ccccc1)NCc1ccccc1	-0.6%
COc1ccc(C(=O)NC2=NCCS2)c(OC)c1	4.5%
CCc1nnc(NS(=O)(=O)c2ccc(NS(=O)(=O)c3ccc(NC(C)=O)cc3)cc2)s1	-6.5%
COc1ccc(S(=O)(=O)Oc2ccc3ccccc3c2)cc1	40.9%
C=CCN1C(=O)NC(=O)/C(=C\c2ccc(OCc3ccc(Cl)cc3)c(OC)c2)C1=O	9.5%
CCOc1cc(C=C2C(=O)NC(=S)NC2=O)ccc1OCc1ccccc1F	8.8%
Cc1ccc(-n2ccc(N)c(C#N)c2=O)cc1	3.3%
Cc1ccccc1C(=O)Nc1ccc(-c2cnc(-c3ccc(NC(=O)c4ccccc4C)cc3)nc2)cc1	11.6%
O=C(Nc1ccc(-c2ccc(Cl)cc2)cc1)C1CC1	4.5%
COC(=O)/C(C#N)=C/c1ccc(-c2ccc(S(N)(=O)=O)cc2)o1	-46.6%
CCOC(=O)C1=C(N)Oc2cc(O)ccc2C1c1cccnc1 (configuration not stated)	-8%
COC(=O)c1ccc(NC(=O)COc2ccc3ccccc3c2)cc1	7.3%

Compound	displacement
CCN1C(=O)CSC1=NC(C)Cc1ccccc1 (configuration not stated)	-3.5%
COc1ccc(OCCNC(=O)Nc2ccc(Br)cc2)cc1	39.9%
CCCNC(=O)n1ccc(C(=O)N2CCOCC2)n1	-4%
Cc1cc(=O)n2[nH]c(-c3cccc(Cl)c3)cc2n1	3.1%
C=CCNS(=O)(=O)c1ccc(C)c([N+](=O)[O-])c1	-12.8%
CCCCn1c(/N=C/c2ccc(C)cc2O)nc2ccccc21	0.4%
O=C1NC(=O)C(=Cc2cc(Br)ccc2OCc2ccc(Cl)cc2Cl)C(=O)N1	13.2%
O=C(Nc1ccccc1C(=O)N1CCCCC1)c1cccnc1	14.6%
O=C(CCc1ccccc1)Nc1ccccc1Br	8.5%
COc1ccc(OC)c(NC(=O)c2ccc(I)cc2)c1	10.3%
Cc1cc(I)ccc1NC(=O)c1ccc([N+](=O)[O-])c(C)c1	-5.6%
CCc1ccc(OCC(=O)Nc2ccc3ccccc3c2)cc1	11.4%
COc1ccc(CC(=O)c2ccc(C(=O)Cc3ccc(OC)c(OC)c3)cc2)cc1OC	18.6%
CCOc1ccc(N2C(=O)CC(NCCNc3ccc([N+](=O)[O-])cn3)C2=O)cc1 (configuration not stated)	0.1%
COc1ccccc1OCC(=O)NNC(=O)Cc1cccs1	-13.1%
COc1cccc(C(=O)NCc2ccccc2OC)c1	-5.4%
Cc1nnc(C)n1/N=C/c1cccc([N+](=O)[O-])c1	10.6%
O=C1CS/C(=N\N=C\c2cn(Cc3ccc(Cl)cc3Cl)nc2-c2ccccc2)N1	-4.2%
COc1cc(C(=O)OCCN2CCOCC2)cc(OC)c1OC	-2.1%
Cc1ccc(Cl)c(OCCCCNCCO)c1	-9.3%
CCN(CC)S(=O)(=O)c1cccc(C(=O)NC2CCCCC2)c1	-8%
CCOc1ccc(/C=N/Nc2nnc(-c3ccccc3)c(-c3ccccc3)n2)c(O)c1	3.7%
COc1ccc(C(=O)NC2=NCCS2)cc1OC	19%

Compound	displacement
COc1ccc(C(=O)c2ccc(N3CCOCC3)c([N+](=O)[O-])c2)cc1	-26%
O=C1OC(OC2CCCCC2)(c2ccccc2)c2ccccc21 (configuration not stated)	-0.9%
NC(=O)c1ccc(NC(=O)Nc2cccc(Cl)c2)cc1	-3.6%
Cc1onc(-c2ccccc2)c1C(=O)N1CCN(c2c(Cl)cccc2[N+](=O)[O-])CC1	7.8%
COc1cccc(OCCOc2c(Cl)cc(/C=C3/SC(=S)NC3=O)cc2OC)c1	0.8%
Cc1ccc(OCCOc2ccccc2C=O)cc1C	-5.7%
CO/N=C(/C(=N/OC)c1ccccc1)c1ccccc1	-8%
O=C(CSCC(=O)Nc1ccc([N+](=O)[O-])cc1)Nc1ccccc1	10%
COC(=O)CN1C(=O)Nc2ccc(Br)cc2C1c1ccccc1 (configuration not stated)	-7.3%
CS(=O)(=O)N(Cc1ccc(Cl)cc1)c1ccc(C(=O)NC2CCCC2)cc1	3.7%
COc1ccc2ccccc2c1C=Nc1ccccc1	-9.1%
Cc1ccc(S(=O)(=O)N2CCN(CCN3C(=O)c4cccc5cccc(c45)C3=O)CC2)cc1[N+](=O)[O-]	1.9%
COc1ccc(NC(=O)c2ccccc2[N+](=O)[O-])c(OC)c1	13.2%
C#CCn1cc(/C=C2\C(=O)NC(=O)N(c3ccc(Cl)cc3)C2=O)c2ccccc21	37.5%
Cc1c(Cl)cccc1N=C1NC(=O)/C(=C/c2ccc(O)c([N+](=O)[O-])c2)S1	8.7%
Cc1c(/C=C/c2nc3ccccc3c(=O)n2-c2ccc([N+](=O)[O-])cc2)c2ccccc2n1C	32.7%
O=C(CSc1nc2ccc(N3C(=O)c4ccccc4C3=O)cc2s1)c1ccc(F)cc1	37.1%
Cc1ccc(C(=O)Nc2nc3ccccc3n2C)cc1	4.6%
CCOC(=O)C(CCOc1ccc(C)c(C)c1)C(=O)OCC	-19.3%
COc1ccc(CP(=O)(c2ccccc2)c2ccccc2)cc1	-1.3%
C=CCOc1ccc(C=C2C(=O)NC(=S)NC2=O)cc1	10.5%
Cc1ccc(NC(=O)CCC(=O)NCc2ccccc2)cc1C	-13.9%
Cc1ccc(C(=O)Nc2ccc(N(C)C)cc2)cc1[N+](=O)[O-]	7.6%

Compound	displacement
C=CCN1C(=O)NC(=O)C(=Cc2ccc(C(C)C)cc2)C1=O	9.3%
CCOC(=O)c1ccc(NC(=O)CN2C(=O)CCC2=O)cc1	10.7%
Cc1ccccc1/C=N/N1CCN(Cc2ccccc2Cl)CC1	12.8%
O=C(c1cccc(Br)c1)N1CCCCC1	2.7%
O=C(COc1ccc([N+](=O)[O-])cc1)Nc1ccc(NC(=O)c2ccco2)cc1	0.4%
C=CCN1C(=O)/C(=C\c2ccc(I)o2)C(=O)NC1=S	-40.9%
C/C(=C\C(=S)Nc1ccccc1)Nc1ccc(Cl)cc1	-23.8%
COC(=O)COc1ccc(/C=C2\C(=O)NC(=S)N(c3ccc(C(C)C)cc3)C2=O)cc1OC	-12%
Cc1cocc1C(=O)N1N=C(c2ccccc2)CC1(O)C(F)(F)F (configuration not stated)	-11.9%
CC(C)CC(=O)N1CCN(C2CCC(C)CC2)CC1 (configuration not stated)	3%
NNC(=O)CCNS(=O)(=O)c1ccc([N+](=O)[O-])cc1	-0.7%
CC(=O)Nc1sc2c(c1C(N)=O)CCC(C)C2 (configuration not stated)	10.6%
Cc1ccc(/C=C2/C=C(c3ccc(Br)cc3)OC2=O)o1	21.3%
Cc1ccc2oc(-c3cc(NC(=O)C(C)C)ccc3O)nc2c1	7.4%
Cc1ccc(NCc2c(O)ccc3ccccc23)cc1	17.3%
CCN(CC)CCn1c(=N)n(CC(=O)c2ccc(C)cc2)c2ccccc21	0.2%
Oc1ccc(Br)cc1C=Nc1cccc2ccccc12	15.5%
O=C1C(=O)N(Cc2ccc(F)cc2)c2ccc(Br)cc21	9%
CN(C)c1ccc(/C=C/C(=O)c2cccc(Br)c2)cc1	-37.5%
Cc1ccccc1N(CC(=O)O)S(C)(=O)=O	8.8%
Cc1nn(CC(=O)Nc2ccc(O)cc2)c(=O)c2ccccc12	-9.1%
O=C(/C=C/c1cccc([N+](=O)[O-])c1)Nc1ccc(-c2nc3ccccc3s2)c(O)c1	-5.1%
Cc1[nH]n(-c2ccccc2)c(=O)c1C(c1ccc(C(F)(F)F)cc1)c1c(C)[nH]n(-c2ccccc2)c1=O	18.6%

Compound	displacement
CCNC(=O)CCC(=O)Nc1cc(Cl)ccc1C	8.1%
CC(C)C(=O)N1CCN(c2ccc([N+](=O)[O-])cc2Cl)CC1	4.5%
COC(=O)C1=C(C)N(c2ccc(C)cc2)C(=O)/C1=C\c1ccc2c(c1)OCO2	107%
C=CCn1c(=S)[nH]c2scc(-c3ccc(C)cc3)c2c1=O	-4.4%
CC(C)COc1ccc(C(=O)N/C(=C/c2ccccc2)C(=O)NCC(=O)OCc2ccccc2)cc1	1.5%
CC(=O)Nc1ccc2oc(-c3ccc(F)cc3Cl)nc2c1	-2%
O=C(Nc1ccc(O)c(-c2nc3ccccc3o2)c1)c1ccc(-c2ccc(Cl)cc2)o1	1.8%
O=C(O)C1C2CCC(C2)C1C(=O)NCc1cccs1 (configuration not stated)	-0.4%
Cc1ccc(C2CC(C(F)(F)F)n3ncc(C(=O)Nc4ccc(OC(F)(F)F)cc4)c3N2)cc1 (configuration not stated)	6.1%
O=C(N/N=C/c1coc2ccccc2c1=O)c1cc(O)cc(O)c1	-5.8%
Cc1cc([N+](=O)[O-])ccc1NCc1cccc(C(F)(F)F)c1	2.6%
COC(=O)Oc1ccc(/C=C2/C(=O)N(c3ccccc3)N=C2C)cc1OC	6.5%
O=C(Cc1ccc(F)cc1F)Nc1ccc(F)cc1F	10%
N#C/C(=C\c1ccc(-c2cccc(Cl)c2Cl)o1)C(=O)NCc1ccco1	37.2%
Cc1cc(NC(=O)c2cc(-c3ccc(C)o3)nc3ccccc23)no1	0.8%
COC(=O)c1ccc(C(=O)OC)c(NC(=O)COc2ccc(Cl)cc2C)c1	5.4%
O=[N+]([O-])c1ccccc1C=NN1CCN(Cc2ccccc2Cl)CC1	-10.1%
Cc1cccc(NCCCC(=O)N/N=C/c2ccco2)c1	1.8%
CC(=C1C(=O)c2ccccc2C1=O)N1CCN(c2ccc([N+](=O)[O-])cc2)CC1	11.3%
O=C(Nc1ccc(O)c(-c2nc3ccccc3o2)c1)c1cc2ccccc2oc1=O	-2.6%
